# Screen size: about 50,000 compounds; about 800 (1.6%) showed an effect of 50% or more. Some of the results follow.
# Molecular target: Bcl-2-like protein 10 (Homo sapiens) (UniProt Q9HD36)
# Assay: TR3 peptide-Bcl-B binding displacers, biochemical primary FP assay, phenotype converters (AID 1240);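 also: 0% = Bcl-B with tracer peptide and DMSO and 100% = tracer peptide lacking Bcl-B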
# Details: GST-Bcl-B / FITC-TR3 peptide fluorescence polarization; stronger effect = higher value; compound at 3.75 mg/L
# Chain of UniProt Q9HD36 (Q9HD36 whole entry, looked up): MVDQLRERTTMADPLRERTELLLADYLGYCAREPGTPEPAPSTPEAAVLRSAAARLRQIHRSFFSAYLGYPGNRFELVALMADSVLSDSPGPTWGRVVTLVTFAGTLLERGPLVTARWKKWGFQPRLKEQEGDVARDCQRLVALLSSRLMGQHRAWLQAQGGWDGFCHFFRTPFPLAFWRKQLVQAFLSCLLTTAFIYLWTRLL
row,Structure (SMILES),displacement [%]
1,CCC(=O)c1ccc(N2CCCCCC2)c(F)c1,-4.9
2,O=C(N/C(=C\c1ccc(-c2ccc(Cl)cc2)o1)C(=O)N1CCOCC1)c1ccccc1,1
3,CCOc1ccc(NC(=O)c2cc(C(=O)O)ccc2C(=O)O)cc1,8
4,Cc1cccc(OCC(=O)Nc2ccccc2C(F)(F)F)c1,10.8
5,CSc1nc2c(c(-c3ccc(Cl)cc3)c1C#N)C(=O)CC(C)(C)C2,-10.4
6,CC(C)(C)c1ccc(OCCOc2cccc(C=C3C(=O)NC(=O)NC3=O)c2)cc1,3.2
7,O=[N+]([O-])c1ccc(Sc2nc3ccccc3s2)c(C(F)(F)F)c1,0.4
8,Cc1ccc(S(=O)(=O)NCCNc2c(Cl)cccc2[N+](=O)[O-])cc1,12.2
9,O=C1C(Cl)=C(N2CCOCC2)C(=O)C(Cl)=C1/C=C/N1CCOCC1,24.3
10,COc1cc(C(=O)NN2C(=O)/C(=C/c3ccc(Cl)cc3Cl)SC2=S)ccc1O,-8.9
11,CCN(CC)C(=O)c1cnn(-c2ccccc2)c1NC(=O)c1cccc(F)c1,-1.1
12,COc1ccc(C(=O)Nc2cccc(C(=O)Nc3cccc(O)c3)c2)cc1,1.6
13,O=C(Nc1ccc(S(=O)(=O)Nc2cnc3ccccc3n2)cc1)c1ccc(Cl)cc1Cl,-1.5
14,COc1ccc(C(=O)C(Sc2nnnn2-c2ccccc2)c2ccc([N+](=O)[O-])cc2)cc1 (stereo unspecified),1.7
15,COc1ccc(C2/C(=C(/O)c3ccccc3)C(=O)C(=O)N2c2cccc(Br)c2)c(OC)c1 (stereo unspecified),-0.7
16,CCOC(=O)C1=C(C)Nc2ccccc2S1,-2.7
17,COc1ccccc1C(NC(=O)Cc1ccccc1)c1ccc2cccnc2c1O (stereo unspecified),-0.4
18,O=S(=O)(NCCOc1ccccc1F)c1ccccc1,-8.7
19,Cc1cccc(NC(=S)NC(=O)/C=C/c2ccccc2)c1,3.8
20,Cc1ccc(C(=O)Nc2ccc(O)c(-c3nc4ccccc4s3)c2)cc1[N+](=O)[O-],-3.2
21,O=C(N/N=C/c1cccs1)c1cc(-c2ccc3ccccc3c2)n[nH]1,-4
22,O=C(N/N=C/c1cc2c(cc1Br)OCO2)c1cccc2ccccc12,6.1

row,Structure (SMILES),displacement [%]
1,O=C(Nc1nc2ccc(Cl)cc2s1)c1ccc(Br)s1,-26
2,O=C(Nc1ccc(Cl)cc1)N1CCN(c2ccc(Cl)cc2)CC1,0.3
3,O=C(C(c1ccccc1)c1ccccc1)N1CCN(Cc2ccccc2[N+](=O)[O-])CC1,-7.5
4,Cc1ccc(NC2=C(Cl)C(=O)N(c3ccc(Cl)cc3)C2=O)cc1C,8
5,CCOC(=O)c1ccc(-n2c(C)cc(/C=C3\SC(=O)NC3=O)c2C)cc1,11.4
6,COc1ccc(C)cc1NC(=O)COc1ccc(Br)cc1C,7.7
7,CCOC(=O)c1ccc(NC(=O)C(Cl)(Cl)Cl)cc1,-4.3
8,COc1cc(-c2ccc(NCN3C(=O)c4ccccc4C3=O)c(OC)c2)ccc1NCN1C(=O)c2ccccc2C1=O,3.2
9,COc1cc(NC(=O)c2ccc(-c3ccc([N+](=O)[O-])cc3C)o2)ccc1NC(=O)c1ccco1,-21.8
10,COc1cc(NC(=O)c2ccc(Br)cc2)cc([N+](=O)[O-])c1,0.6
11,CC(Oc1ccc(Cl)cc1Cl)C(=O)Nc1ncccn1 (stereo unspecified),-3
12,CCOc1cccc(=O)c2c(C)oc(C)c12,16.8
13,O=C(Nc1cccc(Cl)c1)Nc1ccccc1C(=O)N1CCN(c2ccc(F)cc2)CC1,-3.6
14,O=C1C(Cl)=CC(=NS(=O)(=O)c2ccc(Cl)cc2)c2ccccc21,5.9
15,CC(=O)Oc1ccc(/C=C(\NC(=O)c2ccccc2)C(=O)NCC(=O)OCc2ccccc2)cc1,1.4
16,O=C1C(C23CC4CC(CC(C4)C2)C3)C(=O)N(c2ccccc2)N1c1ccccc1,0
17,COc1cc(-c2nnc(SCc3c(F)cccc3Cl)o2)cc(OC)c1OC,-12
18,C=CCn1c(Cc2ccccc2)nc2c(cnn2-c2ccccc2)c1=O,10.6
19,CCOc1ccc(C(=O)Nc2c(C)cc(Br)cc2C)cc1,10.5
20,CCc1ccc(NC(=O)c2cc([N+](=O)[O-])ccc2Cl)cc1,3.9
21,O=C1C2C(c3ccccc3)C=CC(c3ccccc3)C2C(=O)N1c1cccnc1 (stereo unspecified),12
22,O=C1C(=O)N(c2cccc(Cl)c2)C(c2cccc(F)c2)/C1=C(\O)c1ccccc1 (stereo unspecified),1.6

row,Structure (SMILES),displacement [%]
1,O=C(O)CCC(=O)Nc1cccc(Oc2ccc3c(c2)C(=O)N(c2cccc(NC(=O)CCC(=O)O)c2)C3=O)c1,7.2
2,O=C(Nc1ccc(NC(=O)c2ccc([N+](=O)[O-])cc2Cl)cc1Cl)c1ccco1,-2
3,O=C(N/N=C/c1ccc(OCc2ccccc2)cc1)C(O)c1ccccc1 (stereo unspecified),3.9
4,CCCOC(=O)c1c(NC(=O)c2ccccc2OC)sc2c1CCC(C)C2 (stereo unspecified),-5.1
5,Cc1ccc2c(c1)-c1c(ssc1=S)C(C)(C)N2C(=O)COc1nc2ccccc2s1,-3.4
6,Clc1ccc(CSc2ncn[nH]2)cc1,11.8
7,Clc1ccc(OCC2COCCO2)cc1 (stereo unspecified),5.7
8,COc1ccc(/C=N/NC(=O)c2cccc(Cl)c2)c2ccccc12,-9.7
9,CC(=O)c1ccc(N=C2c3ccccc3C(=O)C2c2ccc3ccccc3c2)cc1 (stereo unspecified),2.8
10,O=C1ON=C(c2ccc(Cl)cc2)/C1=C/c1ccccc1Cl,-4.6
11,COc1ccc(Cc2c(O)nc(SCC(=O)Nc3ccc(OC)cc3)[nH]c2=O)cc1,-3.8
12,O=C(NC(Nc1ccc(I)cc1)C(=O)c1ccccc1)c1ccco1 (stereo unspecified),-3.6
13,O=C(N/N=C\c1ccccc1O)c1cc(-c2ccccc2)nc2ccccc12,-0.6
14,Cc1cc2c(cn1)/C(=C\C=C\N(C)C)c1ccccc1-2,-5.8
15,O=C(c1cc([N+](=O)[O-])ccc1F)n1nnc2ccccc21,8.3
16,CC1=C(C(=O)OC2CCCC2)C(c2cccc(O)c2)C2=C(CC(c3ccc(Cl)cc3)CC2=O)N1 (stereo unspecified),-22.9
17,COc1ccc2ccccc2c1C1NN=C(c2ccc(C)cc2)S1 (stereo unspecified),-6.3
18,O=C(COc1ccc(Cl)cc1)N/N=C/c1ccc(I)o1,-6
19,Cc1cc(C)nc(NN2C(=O)/C(=C/c3ccccc3)SC2=S)n1,-25.2
20,COc1cc(/C=C/c2nc(O)c([N+](=O)[O-])c(=O)[nH]2)ccc1OCc1ccccc1,18.3
21,COc1ccc(-c2cc(/N=C/C(C(C)=O)=C(\C)O)n(-c3ccccc3)n2)cc1,-0.2
22,COc1ccc(Cl)cc1NC(=O)CSCc1cccc(Br)c1,1

row,Structure (SMILES),displacement [%]
1,O=C(Nc1ccccn1)c1cc(S(=O)(=O)N2CCOCC2)ccc1Cl,11.7
2,CC(=O)C1=C(O)C(=O)N(CC2CCCO2)C1c1ccc(Br)cc1 (stereo unspecified),0.5
3,O=C1NC(=S)N/C1=C/c1cc([N+](=O)[O-])ccc1Cl,19.8
4,CC(C)NC(=O)c1cnn2c1NC(c1ccc(Br)cc1)CC2C(F)(F)F (stereo unspecified),0.6
5,Cc1ccc(-n2c(C)cc(/C=N/NC(N)=S)c2C)cc1,-19.1
6,Cc1ccccc1SCCNC(=O)c1ccccc1I,-23.9
7,NNC(=Nc1ccccc1)c1ccccn1,3.2
8,COc1cc(C(=O)NC(NC(=S)Nc2cccc(C)c2)C(Cl)(Cl)Cl)cc(OC)c1OC (stereo unspecified),5.9
9,O=C1N/C(=N/N=C/c2ccccc2)SC1Cc1ccccc1Cl (stereo unspecified),15.6
10,COc1ccc(NC(=O)CCc2ccccc2)cc1Cl,-2.5
11,NC(=O)c1cccc(N2C(=O)C=CC2=O)c1,-6
12,CC1CCN(S(=O)(=O)c2ccc(NC(=O)c3ccc([N+](=O)[O-])cc3)cc2)CC1,14.1
13,COc1cccc(C2C(C(=O)OC3CCCC3)=C(C)NC3=C2C(=O)CC(C)(C)C3)c1 (stereo unspecified),3.3
14,CN(C)CCNC(=O)C(=O)NC(c1ccccc1)c1ccccc1,-15.6
15,COc1cccc(-c2nc(-c3ccc(Br)cc3)no2)c1,-4.2
16,O=C(O)c1ccccc1C(=O)Nc1cccc(-c2cn3ccccc3n2)c1,7.5
17,O=C1/C(=C\c2ccc(-c3ccc([N+](=O)[O-])cc3Cl)o2)SC(=S)N1Cc1ccccc1,-5.1
18,CCCCOC(=O)CNc1nnc(SCC(=O)OCC)[nH]c1=O,-7.7
19,C/C(O)=C/c1nc2ccccc2n(-c2ccccc2)c1=O,1.8
20,O=C(NC(Cc1ccccc1)C(=O)NCc1ccco1)OCc1ccccc1 (stereo unspecified),35.9
21,CCOc1ccc(C(=O)Nc2cccc3nsnc23)cc1,2.9
22,Nc1ccc(C(=O)Nc2cccc(-c3nc4ccccc4o3)c2)cc1,-4.5

row,Structure (SMILES),displacement [%]
1,O=C(/C=C/c1ccc2c(c1)OCO2)Nc1ccc(F)c(F)c1,23.7
2,CCOc1ccc(N2C(=O)C(C)C(Cc3cc(C)cc(C)c3)C2=O)cc1 (stereo unspecified),-3.3
3,COc1ccc(-n2nc3cc(C)c(NC(=O)c4cc(I)ccc4Cl)cc3n2)cc1,7
4,COc1ccc(S(=O)(=O)N2CCN(Cc3cccnc3)CC2)cc1,-14.6
5,CC(C)c1ccc(NC(=O)c2c(Cl)cccc2Cl)cc1,11.9
6,CCOc1ccc(N2C(=O)S/C(=C\c3ccc(F)cc3)C2=O)cc1,-7
7,C=CCn1c(-c2ccccc2)c(NC(=O)c2ccco2)sc1=Nc1ccccc1Cl,3.9
8,Cn1c(O)c(/C=C2/C=CC=N2)c(=O)n(-c2ccccc2)c1=S,19.6
9,O=C(c1nc2nc(-c3ccccc3)cc(C(F)(F)F)n2n1)N1CCN(Cc2ccccc2)CC1,-12.6
10,COc1ccccc1CN1CCN(C(=O)c2ccc(-c3ccccc3)cc2)CC1,-2.1
11,c1cncc(CN2CCN(Cc3ccco3)CC2)c1,-10.5
12,CCCCCN1C(=O)/C(=C2\SC(=S)NC2=O)c2ccccc21,5.2
13,N/C(=N\OC(=O)COc1ccc(Cl)cc1Br)c1cccnc1,-8
14,O=C(NC(=S)Nc1cccc(NC(=O)c2ccco2)c1)c1ccc(Cl)cc1,-4.8
15,O=C(Nc1ccccc1C(=O)O)c1ccc(N2C(=O)c3cccc([N+](=O)[O-])c3C2=O)cc1,5.9
16,COC(=O)/C(=C/C(=O)c1ccc(Cl)cc1)Nc1ccc(OC)cc1,-19.5
17,O=C(Cc1ccccc1)Nc1ccc2nn(-c3ccc(F)cc3)nc2c1,6.3
18,COC(=O)c1c(NC(=O)C2CC=CCC2C(=O)O)sc2c1CCC(C(C)(C)C)C2 (stereo unspecified),1.4
